Results taken from PubChem BioAssay AID588342 (National Center for Advancing Translational Sciences (NCATS), 2011).
Among all 360,000 compounds or so, about 25,000 (6.9%) were called active. The inconclusive results got no clear call from the source; some entries with a clear call stand among them for comparison. The call rests on the fitted dose curve; in most records, active means well fitted inhibition curve with a large enough effect; inconclusive means small, poorly fitted or top-dose-only effect; inactive means flat fitted curve, though single readings scatter. Where the call is inconclusive, the potency comes from a doubtful curve fit.

target: Luciferin 4-monooxygenase (Photinus pyralis) (UniProt P08659); test: qHTS profiling assay for firefly luciferase inhibitor/activator using purifed enzyme and Km concentrations of substrates (counterscreen for miR-21 project); settings: purified FLuc, luminescence inhibition; activity change, negative = inhibition: at 57.5 µM (top of the series); further: nearly all actives have a fitted effect of over 55% in size;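 on activity change, negative = inhibition: plate controls were vehicle for no effect and reference inhibitor for full effect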
Chain of UniProt P08659 (P08659 whole entry, looked up): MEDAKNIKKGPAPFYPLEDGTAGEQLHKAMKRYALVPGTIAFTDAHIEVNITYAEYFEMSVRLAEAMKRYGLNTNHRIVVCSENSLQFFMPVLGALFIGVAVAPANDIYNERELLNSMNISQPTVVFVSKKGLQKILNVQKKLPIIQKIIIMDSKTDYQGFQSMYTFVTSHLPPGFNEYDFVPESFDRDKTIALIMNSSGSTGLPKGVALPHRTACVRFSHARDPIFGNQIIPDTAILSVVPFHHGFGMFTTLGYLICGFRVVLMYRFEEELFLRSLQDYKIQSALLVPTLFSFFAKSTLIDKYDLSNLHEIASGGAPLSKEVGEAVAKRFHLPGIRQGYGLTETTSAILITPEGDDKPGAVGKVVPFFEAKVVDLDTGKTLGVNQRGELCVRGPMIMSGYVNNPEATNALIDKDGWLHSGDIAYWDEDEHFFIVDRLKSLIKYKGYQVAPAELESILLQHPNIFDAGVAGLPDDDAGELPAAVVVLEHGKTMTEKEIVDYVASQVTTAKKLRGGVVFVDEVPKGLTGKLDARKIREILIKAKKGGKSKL
Method in brief: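 Biochemical qHTS of compounds, final roughly 60 µM downward over six points, against 10 nM purified firefly luciferase using Km concentrations of substrates (10 uM D-luciferin, 10 uM ATP) in Tris acetate pH 7.5 buffer; luminescence output.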
Potency means the concentration at half of the fitted maximal effect; tags describe the fitted curve by direction and shape.

| Compound | Potency | activity change, negative = inhibition |
| --- | --- | --- |
| CC(=O)Nc1ccc(-c2cc(C(=O)O)c3c(-c4ccccc4)[nH]nc3n2)cc1 | inconclusive: 16.9 µM [inhibitor, partial curve] | – |
| CC(C)CNC(=O)c1cccc(C(=O)NCC(C)C)c1 | – | inactive: 1.69% |
| COc1cc(CN(C(=O)COc2ccc(C)cc2)c2ccccn2)cc(OC)c1OC | inconclusive: 30.1 µM [inhibitor, single point] | – |
| O=C(Nc1nc2ccsc2c(=O)s1)c1ccc(F)cc1 | active: 0.536 µM | – |
| O=C(COc1ccccc1Cl)NCc1ccccc1 | inconclusive: 30.1 µM [inhibitor, partial curve, poor fit] | – |
| CCN1CCN(CCNC(=O)c2ccc(/C=C3\Sc4ccccc4N(Cc4ccccc4F)C3=O)cc2)CC1 | inconclusive: 23.9 µM [inhibitor, partial curve, poor fit] | – |
| CCN(CC)CCNC(=O)c1ccc(CS(=O)(=O)c2ccc(Br)cc2)o1 | – | inactive: 0.37% |
| O=C(CCNC(=O)Cn1ccc2ccccc2c1=O)NCCC1=CCCCC1 | – | inactive: -4.15% |
| C=CCN1C(=O)c2ccc(C(=O)N(CC)CC(=O)Nc3cc(Cl)ccc3C)cc2C1=O | – | inactive: 2.23% |
| CCCc1cc(=O)n2[nH]c(-c3ccco3)nc2n1 | active: 15.1 µM | – |
| CC1CCCC(C)N1C(=O)COC(=O)c1cc(Br)ccc1Cl (stereo unspecified) | inconclusive: 23.9 µM [inhibitor, partial curve, poor fit] | – |
| CCOC(=O)c1cc(S(=O)(=O)Nc2ccc(C)cc2Cl)[nH]n1 | inconclusive: 37.9 µM [inhibitor, partial curve, poor fit] | – |
| N#C/C(C(=O)c1ccccc1)=C1/CCCCCN1 | active: 21.3 µM | – |
| CC(=O)c1cc2c(cc1NS(=O)(=O)c1cccc(C(=O)O)c1)OCO2 | – | inactive: 1.71% |
| Cc1ccc(/C(N)=N/OC(=O)c2ccc3ccccc3c2)cc1 | active: 6.75 µM | – |
| COc1ccc(Cn2c(CCC(=O)NCc3cccc(Cl)c3)nc3cccnc32)cc1 | – | inactive: -7.56% |
| Cc1cccc(/C(N)=N/OC(=O)N2CCOCC2)c1 | active: 16.9 µM | – |
| CCCCCc1ccc(CC(=O)O)cc1 | – | inactive: 4.19% |
| N/C(=N\OC(=O)COc1ccc(Cl)cc1Br)c1ccncc1 | active: 10.7 µM | – |
| CC(=O)c1ccc(NC(=O)CCc2c(C)nc3ncnn3c2C)cc1 | inconclusive: 19 µM [inhibitor, single point] | – |
| COc1ccc(/C=C2/C(=O)N(c3ccccc3)N=C2C)c(OC)c1 | active: 15.1 µM | – |
| Cc1cc(CN(C)Cc2cn(C)nc2-c2ccc(Oc3ccccc3)cc2)on1 | – | inactive: -6.5% |
| CS(=O)(=O)c1ccc2nc(NC(=O)c3cccc(Cl)c3)sc2c1 | inconclusive: 19 µM [inhibitor, partial curve, poor fit] | – |
| COc1ccc(CC(=O)Oc2ccc(F)c(F)c2)cc1S(=O)(=O)N1CCOCC1 | – | inactive: -1.2% |

| Compound | Potency | activity change, negative = inhibition |
| --- | --- | --- |
| Nc1cc(N)nc(SCCc2ccccc2)n1 | inconclusive: 23.9 µM [inhibitor, partial curve, poor fit] | – |
| O=C(O)Cn1nnc(-c2ccc(OCc3cccc(C(F)(F)F)c3)cc2)n1 | inconclusive: 30.1 µM [inhibitor, single point] | – |
| CC(=O)Nc1ccc(C2=NNC(=Nc3cccc(S(=O)(=O)N(C)C)c3)SC2)cc1 | inconclusive: 37.9 µM [inhibitor, partial curve, poor fit] | – |
| COc1ccc(-c2cn3cc(Br)cnc3n2)cc1 | inconclusive: 2.69 µM [inhibitor, full curve] | – |
| O=C(Oc1ccc2ccc(=O)oc2c1)c1ccccc1 | inconclusive: 6.75 µM [inhibitor, full curve] | – |
| COC(=O)c1cc(NC(=O)Nc2ccccc2)ccc1Cl | active: 15.1 µM | – |
| Cc1ccc(-c2nc3sc(CCNS(=O)(=O)c4cc(F)ccc4F)c(C)n3n2)cc1 | inconclusive: 37.9 µM [inhibitor, partial curve, poor fit] | – |
| Cc1ccc(Cl)cc1-n1c(=O)cc(N2CCN(c3ccc(F)cc3)CC2)[nH]c1=O | inconclusive: 15.1 µM [inhibitor, partial curve, poor fit] | – |
| Nc1ccc(-n2cnc3cc([N+](=O)[O-])ccc32)cc1 | inconclusive: 26.9 µM [inhibitor, partial curve, poor fit] | – |
| C/C(=N\Nc1nc2ccccc2c(=O)n1O)c1ccco1 | active: 10.7 µM | – |
| O=C(Nc1cc(-c2nc3ccccc3s2)ccc1Cl)c1cc2ccccc2o1 | inconclusive: 37.9 µM [inhibitor, partial curve, poor fit] | – |
| Fc1ccc(NC(=S)Nc2ccc(Br)cc2)cc1 | inconclusive: 37.9 µM [inhibitor, partial curve, poor fit] | – |
| CSC(=S)N/N=C/c1ccc(Br)cc1 | – | inactive: -17.4% |
| COc1cc(NC(=O)c2cccs2)cc(OC)c1 | inconclusive: 19 µM [inhibitor, partial curve] | – |
| CCCCNC(=S)N=Nc1c(O)[nH]c2ccccc12 | inconclusive: 37.9 µM [inhibitor, partial curve, poor fit] | – |
| O=C(CNC(=O)c1ccccc1F)OCc1csc(-c2ccccc2)n1 | inconclusive: 37.9 µM [inhibitor, single point] | – |
| Cc1cccc(/C=C2\CCC(C3CCCC3)C2=O)c1 (stereo unspecified) | active: 4.78 µM | – |
| COc1cc(/C=C/c2nc(C#N)c(N3CCCCCC3)o2)cc(OC)c1OC | inconclusive: 10.7 µM [inhibitor, partial curve] | – |
| NC(=S)N/N=C/c1ccc(-c2cccc([N+](=O)[O-])c2)o1 | inconclusive: 21.3 µM [inhibitor, partial curve, poor fit] | – |
| Cc1ccc(NC(=O)CCCNC(=O)c2ccc(Cl)cc2)nc1 | inconclusive: 30.1 µM [inhibitor, partial curve, poor fit] | – |
| Cc1ccc(NC2SC(=O)N(Cc3cccc(C(=O)O)c3)C2=O)c(C)c1 (stereo unspecified) | inconclusive: 37.9 µM [inhibitor, partial curve, poor fit] | – |
| Cc1ccc(/C=C2/CCc3c([nH]c4ccccc34)C2=O)cc1 | active: 0.757 µM | – |
| O=C(CNCc1ccccc1Cl)Nc1ccc2c(c1)OCCO2 | active: 21.3 µM | – |
| CCn1c(C)nc2cc(C(=O)N/N=C(\C)c3ccc(OC)cc3O)ccc21 | inconclusive: 37.9 µM [inhibitor, partial curve, poor fit] | – |

| Compound | Potency | activity change, negative = inhibition |
| --- | --- | --- |
| Cc1cccc(-n2nnnc2SCC(=O)c2cc(C)n(CC3CCCO3)c2C)c1 (stereo unspecified) | inconclusive: 19 µM [inhibitor, partial curve] | – |
| CCO/C(C)=N/n1c2nc3ccccc3nc2c2c(=O)n(Cc3ccccc3Cl)c(C)nc21 | inconclusive: 26.9 µM [inhibitor, single point] | – |
| COc1cccc(C(=O)Nc2ccc3nc(SCC(=O)N4CCOCC4)sc3c2)c1 | active: 15.1 µM | – |
| COc1ccc(C(=O)Nc2ccc(-c3ccc(C)o3)cc2)cc1S(=O)(=O)N1CCOCC1 | inconclusive: 37.9 µM [inhibitor, partial curve, poor fit] | – |
| COc1cc(OC)cc(C(=O)Nc2nnc(Cc3ccc(OC)c(OC)c3)s2)c1 | inconclusive: 23.9 µM [inhibitor, partial curve, poor fit] | – |
| O=C(Nc1ccc(NC(=O)c2ccco2)cc1)c1ccc2c(c1)OCCO2 | inconclusive: 7.57 µM [inhibitor, partial curve, poor fit] | – |
| Cc1ccc(NC(CC(=O)c2ccccc2)c2ccc(F)cc2)cc1 (stereo unspecified) | – | inactive: -0.961% |
| O=C(NC1=NCCS1)c1cccs1 | – | inactive: -19.3% |
| CCOC(=O)c1cnc(-c2ccccc2)nc1Oc1ccc(Cl)cc1 | – | inactive: 4.84% |
| O=C(NN1C(=O)c2ccccc2C1=O)c1ccc2c(c1)C(=O)N(CC1CCCO1)C2=O (stereo unspecified) | inconclusive: 37.9 µM [inhibitor, single point] | – |
| CNC(=S)N1CCN(c2nc(-c3ccc(F)cc3)cs2)CC1 | inconclusive: 30.1 µM [inhibitor, single point] | – |
| Cc1ccc(NC(=O)Nc2ccnc(-c3cccnc3)n2)cc1 | inconclusive: 4.78 µM [inhibitor, full curve] | – |
| CCN1CCN(Cc2ccc(OCc3ccccc3)c(OC)c2)CC1 | inconclusive: 30.1 µM [inhibitor, partial curve, poor fit] | – |
| COC(=O)c1sccc1NC(=O)Nc1cccc(C(C)=O)c1 | active: 7.57 µM | – |
| O=C(Nc1ccc2c(c1)OCO2)c1c(F)cccc1F | active: 12 µM | – |
| COc1ccc(OCc2cc(C(=O)N3CCN(C4CCCC4)CC3)no2)c(Cl)c1 | active: 21.3 µM | – |
| CS(=O)(=O)c1ccc(Cl)c(NC(=O)COC(=O)CNC(=O)c2ccc3ccccc3c2)c1 | inconclusive: 19 µM [inhibitor, partial curve] | – |
| O=C(NCCN1C(=O)S/C(=C\c2ccccc2F)C1=O)C1CCN(S(=O)(=O)c2cccs2)CC1 | inconclusive: 26.9 µM [inhibitor, single point] | – |
| O=C(CCc1ccccc1)NCCSc1ccccc1 | inconclusive: 23.9 µM [inhibitor, partial curve] | – |
| O=C(Nc1ccc(N2CCCC2)c(Cl)c1)c1cccc(-c2cc3ccccc3oc2=O)c1 | inconclusive: 8.49 µM [inhibitor, full curve] | – |
| CCOC(=O)C1(CC2CC2)CCN(C(=O)c2cc(OC)nc3ccccc23)CC1 | inconclusive: 26.9 µM [inhibitor, single point] | – |
| CCN(CC)C(=O)c1csc(Nc2ccc(C)cc2)n1 | inconclusive: 37.9 µM [inhibitor, partial curve, poor fit] | – |
| Cc1ccc(OCC(=O)Oc2ccc(C)c(C)c2)cc1 | inconclusive: 21.3 µM [inhibitor, single point] | – |
